{"source": "paper PMC4336329", "about": "(PLoS ONE, 2015)", "note": "Out of some 310,000 compounds screened, about 14,000 (4.5%) showed an effect of 50% or more. Effects have a minus sign here. The list shows a part of the results.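 Also: peak tail current of the secondary pulse compared with the same well before compound.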", "data": [{"molecular_target": "human ether-à-go-go-related gene (hERG) potassium channel (human, UniProt Q12809)", "sequence (Q12809 whole entry, looked up)": "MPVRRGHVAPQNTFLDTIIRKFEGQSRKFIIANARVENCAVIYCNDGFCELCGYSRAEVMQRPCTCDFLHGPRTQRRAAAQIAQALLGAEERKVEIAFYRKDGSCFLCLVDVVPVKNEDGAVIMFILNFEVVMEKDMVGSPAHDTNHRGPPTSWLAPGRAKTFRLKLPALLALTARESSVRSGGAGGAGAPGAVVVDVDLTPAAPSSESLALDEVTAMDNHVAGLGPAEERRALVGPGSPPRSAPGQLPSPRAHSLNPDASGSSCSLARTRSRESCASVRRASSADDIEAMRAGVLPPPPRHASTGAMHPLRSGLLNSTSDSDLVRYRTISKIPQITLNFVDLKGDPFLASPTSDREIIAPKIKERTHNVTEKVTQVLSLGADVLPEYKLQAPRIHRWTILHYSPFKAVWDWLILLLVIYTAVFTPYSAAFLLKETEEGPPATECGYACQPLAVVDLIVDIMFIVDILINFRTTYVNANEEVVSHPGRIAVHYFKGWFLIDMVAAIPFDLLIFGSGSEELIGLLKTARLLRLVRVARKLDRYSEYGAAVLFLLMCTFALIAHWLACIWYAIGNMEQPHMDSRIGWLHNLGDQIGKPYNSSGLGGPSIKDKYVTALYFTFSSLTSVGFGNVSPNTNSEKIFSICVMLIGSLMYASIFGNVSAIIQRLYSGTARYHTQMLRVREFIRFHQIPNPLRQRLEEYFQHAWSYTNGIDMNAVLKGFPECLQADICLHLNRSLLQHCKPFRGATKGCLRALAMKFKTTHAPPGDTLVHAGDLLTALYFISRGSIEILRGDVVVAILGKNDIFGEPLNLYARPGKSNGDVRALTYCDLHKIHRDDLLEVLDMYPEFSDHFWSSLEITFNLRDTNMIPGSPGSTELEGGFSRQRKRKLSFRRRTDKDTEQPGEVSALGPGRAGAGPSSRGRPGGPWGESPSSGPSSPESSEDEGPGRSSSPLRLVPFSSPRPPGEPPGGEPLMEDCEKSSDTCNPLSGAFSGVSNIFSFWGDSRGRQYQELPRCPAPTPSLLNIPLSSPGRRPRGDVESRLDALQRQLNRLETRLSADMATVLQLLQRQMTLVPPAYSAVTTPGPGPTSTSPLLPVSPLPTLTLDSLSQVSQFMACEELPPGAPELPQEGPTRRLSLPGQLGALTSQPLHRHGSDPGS", "experiment": "primary screen, population patch clamp on CHO cells stably expressing hERG", "units": {"hERG current change (%, negative = inhibition) at 10uM": "%"}, "values": [{"compound": "c1csc(CSc2nnc3sc4ccccc4n23)c1", "hERG current change (%, negative = inhibition) at 10uM": -22.6}, {"compound": "O=C(CCc1nc2ccccc2s1)N1CCN(S(=O)(=O)c2cccs2)CC1", "hERG current change (%, negative = inhibition) at 10uM": -66.7}, {"compound": "COc1ccccc1NS(=O)(=O)c1ccc2oc(SC)nc2c1", "hERG current change (%, negative = inhibition) at 10uM": 2.84}, {"compound": "CC(C)(C)OC(=O)N1CC(O)CC1C(=O)OCC(=O)c1ccc(Cl)cc1", "note": "(stereo not drawn)", "hERG current change (%, negative = inhibition) at 10uM": -16.4}, {"compound": "O=C(C1CCCCC1)N(Cc1nc2sc3c(c2c(=O)[nH]1)CCCC3)Cc1cccs1", "hERG current change (%, negative = inhibition) at 10uM": 9.51}, {"compound": "O=C(COC(=O)c1ccc(Cl)nc1)Nc1cc(S(=O)(=O)N2CCCCC2)ccc1Cl", "hERG current change (%, negative = inhibition) at 10uM": -19.4}, {"compound": "CCCCc1c(O)nc(SCC(=O)N2CCCCC2)[nH]c1=O", "hERG current change (%, negative = inhibition) at 10uM": 17.1}, {"compound": "Cc1cc(C(F)(F)F)c2c(n1)sc1c(O)cc(=O)[nH]c12", "hERG current change (%, negative = inhibition) at 10uM": 3.66}, {"compound": "O=c1[nH]c(CCl)nc2cc(-c3ccc(Cl)cc3)sc12", "hERG current change (%, negative = inhibition) at 10uM": 13}, {"compound": "O=C(CS(=O)c1ccc(F)cc1)N1CCOCC1", "note": "(stereo not drawn)", "hERG current change (%, negative = inhibition) at 10uM": 4.47}, {"compound": "CNS(=O)(=O)c1cccc2nsnc12", "hERG current change (%, negative = inhibition) at 10uM": 7.34}, {"compound": "COc1ccc2oc(-c3ccccc3)c(C(=O)N(C)C)c2c1", "hERG current change (%, negative = inhibition) at 10uM": -15.7}, {"compound": "CCCN(CCC)C1CC(=O)N(Cc2ccccc2)C1=O", "note": "(stereo not drawn)", "hERG current change (%, negative = inhibition) at 10uM": 9.19}, {"compound": "N#Cc1cccc(NC(=O)CN2CCN(Cc3ccccc3)CC2)c1", "hERG current change (%, negative = inhibition) at 10uM": -65.1}, {"compound": "CCC(=O)N1CCc2cc(Br)cc(S(=O)(=O)CCC(=O)NCC3CCCO3)c21", "note": "(stereo not drawn)", "hERG current change (%, negative = inhibition) at 10uM": 19.2}, {"compound": "Cc1nnsc1C(=O)N1CCCC(N2CCN(c3cccc(C(F)(F)F)c3)CC2)C1", "note": "(stereo not drawn)", "hERG current change (%, negative = inhibition) at 10uM": -26.8}, {"compound": "Cc1ccc2nc(SCC(=O)NCc3ccco3)c(C#N)cc2c1", "hERG current change (%, negative = inhibition) at 10uM": 9.44}, {"compound": "CC1(C)Cc2cccc(OCC(=O)NCCc3ccc(S(N)(=O)=O)cc3)c2O1", "hERG current change (%, negative = inhibition) at 10uM": -7.34}, {"compound": "CCOc1ccc(CNC(=O)c2cccc(NC(=O)C3=C(C)OCCS3)c2)cc1", "hERG current change (%, negative = inhibition) at 10uM": -12.8}, {"compound": "CCCC(C)NC(=O)CN(Cc1ccco1)S(=O)(=O)c1ccccc1", "note": "(stereo not drawn)", "hERG current change (%, negative = inhibition) at 10uM": 2.25}, {"compound": "Cc1cc(C)nc(Nc2n[nH]c(COc3ccc(Cl)cc3)n2)n1", "hERG current change (%, negative = inhibition) at 10uM": -8.24}, {"compound": "CCC1(C)C(Nc2c(C)cccc2C)=NC(=S)N1c1ccc(NC(C)=O)cc1", "note": "(stereo not drawn)", "hERG current change (%, negative = inhibition) at 10uM": 6.3}, {"compound": "O=C(Nc1ncc(Cc2ccccc2)s1)C1COc2ccccc2O1", "note": "(stereo not drawn)", "hERG current change (%, negative = inhibition) at 10uM": -0.581}, {"compound": "COc1ccc(CNc2nnnn2C)cc1", "hERG current change (%, negative = inhibition) at 10uM": 20.9}, {"compound": "CC(C)(C)c1ccc(C(=O)OCCN2CCCCC2)cc1.Cl", "hERG current change (%, negative = inhibition) at 10uM": -47.6}, {"compound": "COC(=O)C1=C(C(=O)OC)C2(OC1c1ccc(Br)cc1)C(=O)c1ccccc1C2=O", "note": "(stereo not drawn)", "hERG current change (%, negative = inhibition) at 10uM": 17}, {"compound": "CCOC(=O)c1ccc(NC(=O)CC2S/C(=N/N=C/c3c[nH]c4ccccc34)NC2=O)cc1", "note": "(stereo not drawn)", "hERG current change (%, negative = inhibition) at 10uM": -5.73}, {"compound": "Cc1ccc(-c2nsc(SCC(=O)NCc3ccc4c(c3)OCO4)n2)cc1", "hERG current change (%, negative = inhibition) at 10uM": 6.1}, {"compound": "CC1(C)Cc2c(C#N)c(SCc3ccccc3)nc(N3CCOCC3)c2CO1", "hERG current change (%, negative = inhibition) at 10uM": -23.1}, {"compound": "Cc1cccc(NC(=O)C2CCN(c3nccc(C)n3)CC2)c1", "hERG current change (%, negative = inhibition) at 10uM": 11.7}, {"compound": "Cc1ccc(S(=O)(=O)N2CCN(S(C)(=O)=O)C2C)cc1", "note": "(stereo not drawn)", "hERG current change (%, negative = inhibition) at 10uM": -5.44}, {"compound": "Cc1nc2nc(C)c(NS(=O)(=O)c3ccc(CC(C)C)cc3)c(=O)n2[nH]1", "hERG current change (%, negative = inhibition) at 10uM": 27.5}, {"compound": "NS(=O)(=O)c1ccc(CCNC(=O)c2ccc(Cl)nc2)cc1", "hERG current change (%, negative = inhibition) at 10uM": 20.6}, {"compound": "CN(C)C(CNc1ccc(S(C)(=O)=O)cc1[N+](=O)[O-])c1ccccc1", "note": "(stereo not drawn)", "hERG current change (%, negative = inhibition) at 10uM": -12.6}, {"compound": "COC(=O)c1c(C)[nH]c(C(=O)CN2CCOCC2)c1C", "hERG current change (%, negative = inhibition) at 10uM": 17.8}, {"compound": "O=C(CN(C1CCCCC1)S(=O)(=O)c1ccc(F)cc1)Nc1ccc2c(c1)OCO2", "hERG current change (%, negative = inhibition) at 10uM": -25.1}, {"compound": "COc1ccccc1N1CCN(C(=O)Cc2ccc(Cl)cc2)CC1", "hERG current change (%, negative = inhibition) at 10uM": -1.77}, {"compound": "Cc1cc(C)c2[nH]c(=O)c(CN(CC3CCCO3)C(=S)NCc3ccco3)cc2c1", "note": "(stereo not drawn)", "hERG current change (%, negative = inhibition) at 10uM": -4.81}, {"compound": "COc1ccc([C@@]2(O)c3c(ccc(CC=C(C)C)c3O)NC(=O)[C@@H]2OC)cc1", "hERG current change (%, negative = inhibition) at 10uM": 7.93}, {"compound": "Cc1c(Br)c(C(=O)NCc2cc3cc(Cl)ccc3[nH]2)nn1C", "hERG current change (%, negative = inhibition) at 10uM": 2.19}, {"compound": "CCc1ccc(CNC(=O)C2CC(=O)N(C3CCCC3)C2)cc1", "note": "(stereo not drawn)", "hERG current change (%, negative = inhibition) at 10uM": 16.7}, {"compound": "CC(C)C(NC(=O)/C(=C/c1ccco1)NC(=O)c1ccc(Br)o1)C(=O)O", "note": "(stereo not drawn)", "hERG current change (%, negative = inhibition) at 10uM": 12.3}, {"compound": "O=C(c1n[nH]c2ccccc12)N1CCCCC1", "hERG current change (%, negative = inhibition) at 10uM": 10.8}, {"compound": "O=C(Nc1cccc2nsnc12)c1ccc(-c2ccc(Br)cc2)o1", "hERG current change (%, negative = inhibition) at 10uM": -0.757}, {"compound": "Cc1cc(NC(=O)COc2cccc(Oc3ccccc3)c2)no1", "hERG current change (%, negative = inhibition) at 10uM": 13.5}, {"compound": "Cc1cc(NC(=O)CSc2nnc(NCc3ccco3)s2)no1", "hERG current change (%, negative = inhibition) at 10uM": 13.2}, {"compound": "CCOC(=O)/C(=N\\Nc1ccccc1Cl)N1CCN(C)CC1", "hERG current change (%, negative = inhibition) at 10uM": -22.6}, {"compound": "O=C(CN1CCN(c2ncc(C(F)(F)F)cc2Cl)CC1)NCCNc1ncc(C(F)(F)F)cc1Cl", "hERG current change (%, negative = inhibition) at 10uM": 14.3}, {"compound": "CCCN(CC1CC1)S(=O)(=O)c1ccc(S(N)(=O)=O)cc1", "hERG current change (%, negative = inhibition) at 10uM": -17.1}, {"compound": "CN(C(=O)c1ccccc1Cl)c1ccccc1C(=O)NCc1ccccc1", "hERG current change (%, negative = inhibition) at 10uM": 4.28}, {"compound": "O=C(Nc1ccc(C(F)(F)F)cc1)c1csc(-c2ccncc2)n1", "hERG current change (%, negative = inhibition) at 10uM": -25.4}, {"compound": "CC(Nc1ccc(F)cc1)=[N+](C)CCNS(=O)(=O)c1ccc(Cl)cc1.[I-]", "hERG current change (%, negative = inhibition) at 10uM": -68.4}, {"compound": "CC1(C#CC[N+]2(C)CCCCC2)CCC2C(O1)c1ccccc1OC2(C)C.[I-]", "note": "(stereo not drawn)", "hERG current change (%, negative = inhibition) at 10uM": 22.4}, {"compound": "O=C(CN1C(=O)COc2ccc(Cl)cc21)NC1CC1", "hERG current change (%, negative = inhibition) at 10uM": -11.1}, {"compound": "COc1ccc2c(C)cc(SCC(=O)Nc3nsc(-c4ccc(C)cc4)n3)nc2c1", "hERG current change (%, negative = inhibition) at 10uM": -2.54}, {"compound": "CC(=O)Nc1nc(C)cs1", "hERG current change (%, negative = inhibition) at 10uM": 18.6}, {"compound": "S=c1[nH]nc(COc2ccccc2)n1/N=C/c1ccccc1Br", "hERG current change (%, negative = inhibition) at 10uM": 14.7}]}]}
